According to PubChem BioAssay AID894 (National Center for Advancing Translational Sciences (NCATS), 2007):
In all, about 150,000 compounds went through this assay and about 6,500 (4.3%) were called active. This list was built around the results that the source calls inconclusive (neither active nor inactive); the mix of calls is not that of the screen. The call rests on the fitted dose curve; in most records, active means well fitted inhibition curve with a large enough effect (not every such curve was filed as active); inconclusive means small, poorly fitted or top-dose-only effect, or another doubt; inactive means no such curve, though single readings can be large or run the other way. No potency is given beside an inconclusive call; the fits are too rough.
On the % scale 0 is the no-effect control and ±100 the full control effect; potency means the concentration at half of the fitted maximal effect; tags describe the fitted curve by direction and shape.

Each molecule was assayed against 15-hydroxyprostaglandin dehydrogenase [NAD(+)] (Homo sapiens) (UniProt P15428) (assay: qHTS Assay for Inhibitors of HPGD (15-Hydroxyprostaglandin Dehydrogenase)). Settings: purified HPGD, NADH fluorescence kinetic, PGE2 substrate; activity change, negative = inhibition: hits give low values.
UniProt P15428, sequence (P15428 whole entry, looked up): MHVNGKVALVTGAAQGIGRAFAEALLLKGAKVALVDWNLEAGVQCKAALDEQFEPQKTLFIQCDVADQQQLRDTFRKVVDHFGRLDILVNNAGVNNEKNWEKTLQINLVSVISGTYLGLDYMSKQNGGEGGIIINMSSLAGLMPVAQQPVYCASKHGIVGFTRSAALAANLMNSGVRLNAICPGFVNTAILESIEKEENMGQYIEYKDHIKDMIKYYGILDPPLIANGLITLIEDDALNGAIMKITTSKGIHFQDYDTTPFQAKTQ
Method in brief: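 NADH formation kinetics: reaction with 30 uM PGE2 and 1 mM NAD+ (final), 20 nM enzyme, Tris-HCl pH 8 with Tween 20, after 15 min compound preincubation at room temperature. Fluorescence change, last versus first of five reads.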
With `COC(=O)c1nc(NC(=O)c2ccccc2Cl)n[nH]1` the Potency was inconclusive [inhibitor, partial curve]. `O=C(Nc1nc2c(s1)CCCC2)c1cccc(S(=O)(=O)N2CCCc3ccccc32)c1` was tested, and the Potency was inconclusive [inhibitor, single point]. For `O=C(CN1C(=O)c2cccc3cccc1c23)Nc1ccc(S(=O)(=O)N2CCOCC2)cc1`, the Potency was inconclusive [inhibitor, single point]. For `CCCc1cc(=O)[nH]c(-n2[nH]c3c(c2=O)CCCC3)n1`, the Potency was active: 22.4 µM. With `CCOC(=O)Cc1c(C)nc2c(-c3ccccc3)c[nH]n2c1=O` the Potency was inconclusive [inhibitor, partial curve]. In the case of `CCN(Cc1ccccc1)c1ccc(/C=N/NC(=S)NC(C)C)cc1`, the Potency is reported as inconclusive [inhibitor, partial curve]. In the case of `Nc1c(NCCC2=CCCCC2)c(=O)[nH]c(=O)n1Cc1ccccc1`, the Potency is reported as inconclusive [inhibitor, partial curve]. In the case of `Cc1ccccc1C(=O)O/N=C/c1c(N2CCOCC2)n(C)c2ccccc12`, the Potency is reported as inconclusive [inhibitor, single point]. In the case of `CCCC(=O)N1CCN(c2ccc(NC(=O)c3cc4ccccc4o3)cc2Cl)CC1`, the Potency is reported as inconclusive [inhibitor, partial curve]. With `CC(C)C1=C[C@@]23CC[C@@H]4[C@](C)(CCC[C@@]4(C)C(=O)O)[C@@H]2C[C@@H]1[C@@H](C(=O)O)[C@@H]3C(=O)O` the activity change, negative = inhibition was inactive: -6.05%. For `CC(=O)c1cccc(NC(=S)NC(=O)c2ccccc2Cl)c1`, the Potency was active: 20 µM. `CCOc1ccc(Br)cc1C(=O)Nc1ccc(C(=O)NCC(C)C)cc1` was tested, and the Potency was active: 2 µM. For `C/C(=C\c1ccco1)C1Nc2cccc3cccc(c23)N1`, the Potency was inconclusive [inhibitor, partial curve]. `Cc1ccc(-c2ccc(/C=C3\C(=O)ON=C3c3ccccc3)o2)c([N+](=O)[O-])c1` was tested, and the Potency was active: 1.26 µM. In the case of `C(=N\n1cnnc1)/c1ccc(N2CCOCC2)cc1`, the Potency is reported as inconclusive [inhibitor, single point]. For `COc1cccc(NC(=O)c2ccc(-n3cccn3)nc2)c1`, the Potency was inconclusive [inhibitor, partial curve, poor fit]. With `O=C(c1cccc(F)c1)N1CCN(c2ccc([N+](=O)[O-])c(N3CCOCC3)c2)CC1` the activity change, negative = inhibition was inactive: -9.56%. With `COc1cc2nc(SCc3ccc(Cl)cc3Cl)n(Cc3cccs3)c(=N)c2cc1OC` the Potency was inconclusive [inhibitor, single point]. For `Fc1ccc(NC(=S)NCCc2ccccc2)c(F)c1F`, the Potency was active: 25.1 µM. For `COc1ccccc1/C=C/C=N/n1c(-c2cc(C)[nH]n2)n[nH]c1=S`, the Potency was active: 14.1 µM. With `Cn1c(O)c(N=NC(=O)c2cccc(S(=O)(=O)N3CCCCC3)c2)c2ccccc21` the Potency was inconclusive [inhibitor, partial curve]. `COc1ccc(/C=C/C(=O)N2CCCc3ccccc32)cc1` was tested, and the Potency was active: 11.2 µM. In the case of `O=C(CSc1nccn1-c1ccccc1)Nc1ccc2c(c1)OCO2`, the activity change, negative = inhibition is reported as inactive: -17.9%. `COc1ccc(N2CCN(C(=O)CSc3nnc(-c4cc5ccccc5cc4O)n3C)CC2)cc1` was tested, and the activity change, negative = inhibition was inactive: -16.1%. With `Cc1cccc(N2CCN(c3ccc(N4C(=O)CCCC4=O)cc3[N+](=O)[O-])CC2C)c1` (configuration not stated) the activity change, negative = inhibition was inactive: -22.6%. With `CN(C)S(=O)(=O)c1ccc(N2CCCC2)c(C(=O)Nc2nc(-c3ccc(F)c(F)c3)cs2)c1` the Potency was inconclusive [inhibitor, partial curve]. `CCSc1nnc(NC(=O)c2csc3c2CCCC3)s1` was tested, and the Potency was inconclusive [inhibitor, single point]. For `COc1ccc(NC(=O)N2CC3(CCN(C(=O)c4cnccn4)CC3)C2)cc1`, the activity change, negative = inhibition was inactive: -7.04%. With `CCn1cc(/C=C/C(=O)Nc2c(C)nn(Cc3ccccc3)c2C)cn1` the activity change, negative = inhibition was inactive: -12.4%. `Fc1ccc(-n2c(-c3ccco3)nc3nc4ccccc4nc32)cc1` was tested, and the Potency was inconclusive [inhibitor, partial curve]. For `CN1c2ccccc2N(C)C1(C)c1cccc2ccccc12`, the activity change, negative = inhibition was inactive: -3.42%. `O=C1c2cccc3c([N+](=O)[O-])ccc(c23)C(=O)N1c1ccccn1` was tested, and the Potency was active: 28.2 µM. `CC(C)OC(=O)/C(C#N)=C/c1ccc(-c2ccc(SC(F)F)cc2)o1` was tested, and the Potency was inconclusive [inhibitor, partial curve]. In the case of `COc1ccc(S(=O)(=O)N(CC(=O)N2CCN(c3ccccc3OC)CC2)c2ccccc2)cc1`, the activity change, negative = inhibition is reported as inactive: -21%. For `COCc1nnc(NC(=O)CSc2ccccc2)s1`, the activity change, negative = inhibition was inactive: -3.56%. In the case of `CCOC(=O)N1CCC(=NNc2ccc(S(=O)(=O)N3CCOCC3)cc2[N+](=O)[O-])CC1`, the activity change, negative = inhibition is reported as inactive: -17.1%. `CCN1CCN(CCCNC(=O)c2cn(CCOC)c(=O)c3c2c2ccccc2n3C)CC1` was tested, and the Potency was inconclusive [inhibitor, partial curve]. With `COc1cc(/C=N/NC(=O)c2cccnc2)ccc1OS(=O)(=O)c1cc(C)ccc1C` the activity change, negative = inhibition was inactive: -15.4%. With `Cn1c(C(=O)NCC2CCCO2)cc2oc3ccccc3c21` (configuration not stated) the Potency was active: 1.41 µM. `CCOC(=O)c1ccccc1Nc1cc(C)nc2nc(C)nn12` was tested, and the Potency was active: 2.24 µM. With `O=C(c1ccccc1C(=O)N(c1ccccc1)c1ccccc1)N1CCCCC1` the activity change, negative = inhibition was inactive: -2.08%. In the case of `CCC(=O)N1CCC(c2ccc(OC)cc2)=N1`, the Potency is reported as inconclusive [inhibitor, single point]. For `CCOc1ccc(C(=O)N/N=C/c2cc(Cl)ccc2[N+](=O)[O-])cc1`, the Potency was active: 22.4 µM. In the case of `O=C(Oc1ccc2c(=O)c(Cl)coc2c1)c1ccncc1`, the Potency is reported as inconclusive [inhibitor, partial curve]. `CCC1=C(OC(=O)N(CC)CC)N2C(=O)OC(=NCC3CC3)[C@]2(Cc2ccccc2)[C@H]2C1=CC[C@H]1C(=O)N(CC)C(=O)[C@H]12` was tested, and the activity change, negative = inhibition was inactive: -4.21%. In the case of `COc1ccc2cc(/C=N/NC(=O)CN(c3ccccc3)S(=O)(=O)c3ccccc3)c(Cl)nc2c1`, the Potency is reported as inconclusive [inhibitor, partial curve]. `CN(C)c1ncc2ncc(=O)n(C)c2n1` was tested, and the Potency was inconclusive [inhibitor, partial curve]. With `O=C(Cc1ccc(Cl)cc1)c1c(O)cc(O)cc1O` the Potency was inconclusive [inhibitor, partial curve]. For `O=C(CCCCCN1C(=O)c2ccccc2C1=O)Nc1ccc(F)cc1`, the Potency was active: 17.8 µM. `O=C(CSc1nc2ccccc2[nH]1)N1CCN(c2ccc(F)cc2)CC1` was tested, and the activity change, negative = inhibition was inactive: -10.8%. `COc1ccccc1NC1=C(Cl)C(=O)N(c2ccccc2)C1=O` was tested, and the Potency was active: 20 µM. With `N#CC1=C(N)SC(N)=C(C#N)C1c1ccc([N+](=O)[O-])cc1` the Potency was inconclusive [inhibitor, single point]. For `CCCn1c(-c2ccc(OC)cc2)nc2c(=O)n(C)c(=O)[nH]c21`, the Potency was inconclusive [inhibitor, partial curve]. In the case of `COCCNC(=O)C1CC(=O)N(C2CCCCC2)C1` (configuration not stated), the activity change, negative = inhibition is reported as inactive: -2.83%. `O=C(Cc1c(O)c2ccccc2[nH]c1=O)NCc1ccccc1` was tested, and the Potency was inconclusive [inhibitor, single point]. `CCOC(=O)c1cc(-c2ccccc2)sc1NC(=O)C(C)(C)C` was tested, and the Potency was inconclusive [inhibitor, partial curve]. For `Cc1cccc(-n2c(=O)[nH]c3c(C(N)=O)nc(C(C)C)nc32)c1`, the Potency was inconclusive [inhibitor, single point]. With `CCOC(=O)/C(=C/c1ccc(OC(=O)c2ccccc2)cc1)C(C)=O` the Potency was inconclusive [inhibitor, single point]. `COC(=O)CC1Sc2ccccc2NC1=O` (configuration not stated) was tested, and the activity change, negative = inhibition was inactive: -8.02%. `CCNc1ccc(Br)cc(C(=O)/C=C/c2ccc(Cl)cc2Cl)c1=O` was tested, and the Potency was active: 22.4 µM. For `Cc1cccc(OCCCC(=O)Nc2ccc(N(C)C)cc2)c1`, the activity change, negative = inhibition was inactive: 0.469%. For `O=c1cc(O)n(-c2ccccc2)c(=S)[nH]1`, the activity change, negative = inhibition was inactive: -12.4%. `N[C@@H](C(=O)O)c1cc(O)ccc1Cl` was tested, and the activity change, negative = inhibition was inactive: -27.8%. With `CCOc1ccc(Cc2n[nH]c(=S)n2N)cc1` the Potency was inconclusive [inhibitor, single point]. In the case of `COc1ccccc1-c1nnc(SCC(=O)N2CCC(C)CC2)o1`, the Potency is reported as inconclusive [inhibitor, single point]. `COc1ccccc1/C=C/C1=NC(=C\N(C)C)/C(=O)O1` was tested, and the Potency was inconclusive [inhibitor, partial curve]. For `COCCCn1c(C)nc2c(c1=O)c1nc3ccccc3nc1n2CCc1ccccc1`, the Potency was inconclusive [inhibitor, partial curve]. For `COc1cc(/C=N/NC(=O)C(C)n2nnc3ccccc32)ccc1O` (configuration not stated), the Potency was inconclusive [inhibitor, partial curve]. With `COc1cccc(-c2cc(=O)c3cc(NC(=O)c4ccc(N(C)C)cc4)ccc3[nH]2)c1` the Potency was inconclusive [inhibitor, single point]. `Cc1ccc(-c2oc3ncnc(N)c3c2-c2ccc(C)cc2)cc1` was tested, and the Potency was inconclusive [inhibitor, partial curve]. In the case of `CSc1nc2ccc(NS(=O)(=O)c3ccc(Cl)s3)cc2s1`, the Potency is reported as active: 25.1 µM. In the case of `C=CCSc1nc2c(c(=O)[nH]c(=O)n2C)n1C(C)C`, the Potency is reported as active: 17.8 µM.
